# Assay results taken from PubChem BioAssay AID1030 (National Center for Advancing Translational Sciences (NCATS), 2008).
# The whole screen tested about 220,000 compounds, of which about 16,000 (7.3%) were called active. Inconclusive results, whose numbers are uncertain, are shown with a selection of clear calls. Calls come from the whole dose curve; as a rule, active = well fitted inhibition curve with a large enough effect (not every such curve was filed as active); inconclusive = small, poorly fitted or top-dose-only effect, or another doubt; inactive = no such curve, though single readings can be large or run the other way. No potency is given beside an inconclusive call; the fits are too rough.
# Target: Aldehyde dehydrogenase 1A1 (Homo sapiens) (UniProt P00352)
# Chain of UniProt P00352 (P00352 whole entry, looked up): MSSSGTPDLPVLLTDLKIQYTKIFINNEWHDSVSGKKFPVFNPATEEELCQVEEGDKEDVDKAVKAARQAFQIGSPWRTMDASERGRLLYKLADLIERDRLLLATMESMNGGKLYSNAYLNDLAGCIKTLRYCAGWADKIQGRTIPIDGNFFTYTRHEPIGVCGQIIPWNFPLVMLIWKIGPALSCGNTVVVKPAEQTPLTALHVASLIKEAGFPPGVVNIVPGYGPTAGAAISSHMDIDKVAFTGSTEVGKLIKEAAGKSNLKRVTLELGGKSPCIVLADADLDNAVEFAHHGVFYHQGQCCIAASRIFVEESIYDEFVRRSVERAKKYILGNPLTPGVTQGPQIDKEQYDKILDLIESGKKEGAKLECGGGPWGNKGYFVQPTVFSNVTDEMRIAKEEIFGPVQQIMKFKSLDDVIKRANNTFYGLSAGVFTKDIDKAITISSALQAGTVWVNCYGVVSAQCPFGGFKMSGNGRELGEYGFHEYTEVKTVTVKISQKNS
# Experiment: qHTS Assay for Inhibitors of Aldehyde Dehydrogenase 1 (ALDH1A1);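 for activity, negative = inhibition: plate controls were no enzyme wells and a reference inhibitor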
# Settings: Purified ALDH1A1, NADH fluorescence, propionaldehyde substrate; series mostly up to 75.3 µM; activity, negative = inhibition: at the top concentration
# Potency is the fitted concentration of half-maximal effect; tags give direction and shape of the fitted curve.
SMILES,Potency,"activity, negative = inhibition"
Cc1ccc(-c2cc(-c3nnc(SCC(=O)NC(C)C(C)C)n3N)c3ccccc3n2)cc1 (stereo not given),"inconclusive [inhibitor, single point]",
CC(=O)N1CCN(c2ccccc2NC(=O)COc2ccccc2C)CC1,"inconclusive [inhibitor, single point]",
COc1cc(C=O)ccc1OS(=O)(=O)c1ccc(NC(C)=O)cc1,"inconclusive [inhibitor, single point]",
COc1cccc(Cn2c(N)c(C#N)c3nc4ccccc4nc32)c1OC,"inconclusive [inhibitor, partial curve]",
O=C(CSCC(=O)NC1CCCC1)Nc1ccccc1,,inactive: 5.56%
N#Cc1c(-c2ccccc2)cc(C2CC2)nc1N,"inconclusive [inhibitor, partial curve]",
CC1Cc2ccccc2N1CC(=O)Nc1ccc2c(c1)OC(F)(F)O2 (stereo not given),"inconclusive [inhibitor, partial curve]",
O=S(=O)(c1cccc(Cl)c1)N1CCCC1,"inconclusive [inhibitor, full curve]",
O=C1CCc2cc(S(=O)(=O)N3CCN(c4cccc(Cl)c4)CC3)ccc2N1,,inactive: 13.6%
Cc1nonc1C(=O)N/N=C/c1ccc([N+](=O)[O-])o1,"inconclusive [inhibitor, single point]",
c1coc(CN=C2NC(=NCc3ccco3)c3ccccc32)c1,active: 25.1 µM,
CCCCCCC(=O)Nc1nc(C)c(-c2csc(Nc3ccc(Cl)cc3)n2)s1,"inconclusive [inhibitor, single point]",
Cc1ccc(S(=O)(=O)Cn2nnnc2C(CC(C)C)N2CCN(C)CC2)cc1 (stereo not given),,inactive: 1.79%
O=c1c2c(nc3cc(-c4ccccc4Cl)[nH]n13)CCS2,"inconclusive [inhibitor, single point]",
CCCCNS(=O)(=O)c1ccc2nc(SCC(=O)c3ccccc3OC)[nH]c2c1,"inconclusive [inhibitor, single point]",
CC1=CC2=NC(=O)/C(=C\c3ccc(OC(=O)c4ccco4)cc3)C(=N)N2O1,"inconclusive [inhibitor, single point]",
COc1ccccc1NC(=O)Nc1ccc2c(c1)nc(C)n2C,,inactive: 10%
Cc1ccc(-c2cc[n+](Cc3ccccc3)cc2)cc1,"inconclusive [inhibitor, partial curve]",
COc1cccc(NC(=O)COc2nc3ccccc3nc2C)c1,"inconclusive [inhibitor, single point]",
CC1(C)CC(=O)C2=C(C1)NC(=O)NC2c1ccccc1 (stereo not given),,inactive: 11.1%
